Results as given in the supplement of paper PMC11417369.
± gives the standard deviation of the averaged measurements. This is one part of the list.

What follows are sequences tested on PfAP2-I AP2 domain 3 (GST-tagged) (assay: gcPBM binding intensity (ln(normalized median fluorescence intensity)); higher = stronger DNA binding).
In short: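 GST-fused DNA-binding domains of P. falciparum, expressed in E. coli, were applied at about 25 μg on average for 1 h to an Agilent 4 × 180k array of primer-extended double-stranded 36-bp intergenic genomic probes and negative controls. Binding intensity is the highest Masliner-normalised natural-log median intensity across replicate spots of either probe orientation, measured with Alexa488 anti-GST antibody and a 488 nm scan.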

Sequence	gcPBM binding intensity (ln)
TAAAAGAAATAAGGTGCACACATATACATATATATA [CACACA_site8037]	10.19 ± 0.071
TTTCTAAATGTTTATATATATATATATATATAAATA [GTGCAC_negctrl_site397]	7.98 ± 0.35
AATATATCAAAAATTGGATAGTTTCTTATAAAAAAT [CACACA_negctrl_site39]	7.45 ± 0.58
ATATATTTTAAAGAAAGTACCCACCGTTTGAAGTCA [XGTACX_site2273]	8.3 ± 0.38
ATTAATATATAACGTGCACACACACCGTTACGTATG [CACACA_site8543]	10.3 ± 0.35
TGTTATATATATTGACTTAATAAATAAATAAATATA [GTGCAC_negctrl_site590]	7.25 ± 0.26
TCTTATTTTATAAATATAAATATATATATATATATA [GTGCAC_negctrl_site479]	9.25 ± 0.37
TATTTTATAATTTACCGTACATTAATTGTATTATTA [XGTACX_site5722]	8.03 ± 0.49
ATATATTTTATATGTGTGCACTATATATATATATAT	11.4 ± 0.3
TTACAAAACACTTATACACACATATAAATATAAATA [CACACA_site7307]	7.95 ± 0.17
CTCCTCATATAATTTTGTACATAAAAAATTACCATT [XGTACX_site3879]	7.93 ± 0.54
TATAAACATAAATATACACACAAACATATAGGTATT [CACACA_site6690]	7.71 ± 0.59
AAAAAAAAAAAAAAAAAAAAAAATATATATATATTT [GTGCAC_negctrl_site502]	9.625 ± 0.064
ATTAATCAATATAGGCGTACAAAAAAAATAAATTAT [XGTACX_site1513]	8.16 ± 0.54
CCCCTTAATTTATTTTGTACATATAATTTTTTTTTT [XGTACX_site3270]	7.85 ± 0.34
CTTGTATATAAACACACACACACTTTCTTTTTTTAA [CACACA_site8602]	7.83 ± 0.57
ACAAAAATAAGCAAATGTACATATGTATAATATATT [XGTACX_site2492]	7.77 ± 0.58
GTATTTTTAAATGACACACACATATATAAATATGTA [CACACA_site6880]	7.83 ± 0.39
CTGGAGTTAAAAATGTGTACCTAAAAAATTTTGTTC [XGTACX_site5554]	7.87 ± 0.47
ATTATTATATATAAAACACACAATTTTGTTTTCACA [CACACA_site3965]	7.74 ± 0.5
ATATAATAATATTAAAGTACATGCATATATATTTAT [XGTACX_site7422]	7.71 ± 0.54
ACTATTTAAATGCAAAGTACTTTGATAATAAACAAT [XGTACX_site2608]	7.99 ± 0.5

Sequence	gcPBM binding intensity (ln)
TAATATAACAAAAAAATAAAATAAAATAAAAAATAA [CACACA_negctrl_site109]	7.49 ± 0.55
ATTTTTTAAAAAAACATACACACAAAAAAAAAAAAA [CACACA_site3936]	7.99 ± 0.69
CATAATATCTCTTTGTGTACATATAGTTATTATTAT [XGTACX_site7688]	7.88 ± 0.52
TGAAATGATATATAAACACACATATATATATATATA [CACACA_site3511]	9.38 ± 0.72
ATTTTTAATGTGATCACACATAAATATTATATATAT [CACACA_site5641]	8 ± 0.58
GTATAAAAAAATATATGTACTTATTTACATATATAT [XGTACX_site4744]	7.79 ± 0.43
ATATTATAATTGAAGGTGCAAAATGTAATATAGATA [GTGCAC_site9661]	10.9 ± 0.49
ATTCATTTTTTGGGGGGTACACCCTTTTAAACATTT [XGTACX_site4797]	10.1 ± 0.22
ATTATTATTTAAAAAAGTACATTGAAGTTCATAATA [XGTACX_site3575]	7.8 ± 0.42
CCCCCCCACAGACACACACACATACATACCACATAT [CACACA_site2306]	10.3 ± 0.22
TTAAAGCTGACATATACACACATACATAAATTCATA [CACACA_site5377]	7.75 ± 0.42
TATACATATATTATATGTACATATATATATAATATA [XGTACX_site2942]	7.755 ± 0.007
ATATATATATAATAAACACACAAATAGATATAACAT [CACACA_site3715]	8.99 ± 0.014
GGACAAGTTTTTTACATAAATAAAAAAAATAAAAAA [XGTACX_negctrl_site125]	7.67 ± 0.61
AAAAAAAATACATACACACACACACCCACATATATA [CACACA_site3561]	8.03 ± 0.16
AATATAAAAAAAGAGGAGGGATGGTATACTTGTGGT [CACACA_negctrl_site986]	7.94 ± 0.78
ATAGAAGGCAACTTGGTGCACAAAAAAAAAAATAAT	11.6 ± 0.25
TTTTTTAAAAGATATATAATATGTATGAATATTCAA [XGTACX_negctrl_site380]	7.31 ± 0.49
AATGTGAAAAAAAAAAGTACAGACCTAATCAAAAAA [XGTACX_site2486]	8.09 ± 0.38
CGAACAAACAAATAAACACACAAAAAAAAATATATA [CACACA_site1825]	7.62 ± 0.61
ATACTTATGATAAATACACACTTGAAATTAAGGATT [CACACA_site4772]	7.64 ± 0.57
CAACATATGCATATGTGTACATATTTTATTTTCAAC [XGTACX_site2237]	7.76 ± 0.47
